Results on 32 sequences are retold here after PMC12820563, “FoxP3 forms a head-to-head dimer in vivo and stabilizes its multimerization on adjacent microsatellites”.

The list shows a part of the results.

The assay addresses T1, MBP-FoxP1dN (Mus musculus, UniProt P58462 326-579).
T1 sequence: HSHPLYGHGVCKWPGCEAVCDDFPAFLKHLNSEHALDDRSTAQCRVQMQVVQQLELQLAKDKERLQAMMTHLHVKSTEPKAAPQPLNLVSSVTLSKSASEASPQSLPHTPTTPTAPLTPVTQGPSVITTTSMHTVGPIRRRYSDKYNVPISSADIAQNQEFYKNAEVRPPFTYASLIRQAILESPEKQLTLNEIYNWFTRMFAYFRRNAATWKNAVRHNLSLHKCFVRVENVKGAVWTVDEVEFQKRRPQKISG
Nature of the assay: PD-seq (MBP pull-down with sequencing); 20 mM Tris-HCl pH 7.5, 100 mM NaCl, 1.5 mM MgCl2, 0.4 uM protein, 0.1 uM dsDNA library, 30 min, room temperature, amylose pull-down; high values mean tight binding. As to conditions: protein: recombinant; tags: His6-MBP; chain copies: 2; dsDNA, one strand shown. An outline of the steps:
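Binding is given as reads-per-million enrichment, pull-down over input, with replicates pooled. The bait was an N-terminus-lacking mouse FoxP3 or FoxP1 fragment with a His6-MBP tag, expressed in E. coli and used at 0.4 µM with 0.1 µM Klenow-filled degenerate double-stranded DNA library for 30 min at room temperature in Tris pH 7.5 buffer with NaCl and MgCl2. Amylose resin pull-down with three washes was followed by proteinase K release, PCR barcoding and Illumina sequencing.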
Turning to “GATGATTGTTCTCCCAGCTGATGAATTTGTCCGGTCGAGTAAACAAATTTTCCTAATCTTTCTGTTCAAGCGCCATCTAC”, the binding signal was 0.891 RPM ratio (pull-down/input).
For “GATGATTGTTCTCCCAGCTGATGAATTGAGTTGATCGAGTAAACAAATTTTCCTAATCTTTCTGTTCAAGCGCCATCTAC” the value was 1.01 RPM ratio (pull-down/input); for “GATGATTGTTCTCCCAGCTGATGAATTAAAACTATCGAGTAAACAAATTTTCCTAATCTTTCTGTTCAAGCGCCATCTAC”, 0.983 RPM ratio (pull-down/input); for “GATGATTGTTCTCCCAGCTGATGAATTTCGCCATTCGAGTAAACAAATTTTCCTAATCTTTCTGTTCAAGCGCCATCTAC”, 0.883 RPM ratio (pull-down/input).
In the case of “GATGATTGTTCTCCCAGCTGATGAATTAGTGAATTCGAGTAAACAAATTTTCCTAATCTTTCTGTTCAAGCGCCATCTAC”, the binding signal was 0.981 RPM ratio (pull-down/input).
The same measure for “GATGATTGTTCTCCCAGCTGATGAATTACAAGACTCGAGTAAACAAATTTTCCTAATCTTTCTGTTCAAGCGCCATCTAC”: 1.07 RPM ratio (pull-down/input); for “GATGATTGTTCTCCCAGCTGATGAATTTGCCAGGTCGAGTAAACAAATTTTCCTAATCTTTCTGTTCAAGCGCCATCTAC”: 0.797 RPM ratio (pull-down/input); for “GATGATTGTTCTCCCAGCTGATGAATTATGGTAATCGAGTAAACAAATTTTCCTAATCTTTCTGTTCAAGCGCCATCTAC”: 1.46 RPM ratio (pull-down/input).
The same measure for “GATGATTGTTCTCCCAGCTGATGAATTCAAACCTTCGAGTAAACAAATTTTCCTAATCTTTCTGTTCAAGCGCCATCTAC”: 0.838 RPM ratio (pull-down/input); for “GATGATTGTTCTCCCAGCTGATGAATTACCGAGTTCGAGTAAACAAATTTTCCTAATCTTTCTGTTCAAGCGCCATCTAC”: 0.938 RPM ratio (pull-down/input).
The same measure for “GATGATTGTTCTCCCAGCTGATGAATTTGGGTGATCGAGTAAACAAATTTTCCTAATCTTTCTGTTCAAGCGCCATCTAC”: 0.896 RPM ratio (pull-down/input); for “GATGATTGTTCTCCCAGCTGATGAATTTGCTTATTCGAGTAAACAAATTTTCCTAATCTTTCTGTTCAAGCGCCATCTAC”: 1.64 RPM ratio (pull-down/input); for “GATGATTGTTCTCCCAGCTGATGAATTTGCGGGTTCGAGTAAACAAATTTTCCTAATCTTTCTGTTCAAGCGCCATCTAC”: 0.893 RPM ratio (pull-down/input).
For the sequence “GATGATTGTTCTCCCAGCTGATGAATTCCGCGGTTCGAGTAAACAAATTTTCCTAATCTTTCTGTTCAAGCGCCATCTAC”, the binding signal is 0.838 RPM ratio (pull-down/input).
For “GATGATTGTTCTCCCAGCTGATGAATTGGCTTTATCGAGTAAACAAATTTTCCTAATCTTTCTGTTCAAGCGCCATCTAC”, the binding signal is 1 RPM ratio (pull-down/input).
For “GATGATTGTTCTCCCAGCTGATGAATTCGCCGTTTCGAGTAAACAAATTTTCCTAATCTTTCTGTTCAAGCGCCATCTAC” the value was 0.798 RPM ratio (pull-down/input); for “GATGATTGTTCTCCCAGCTGATGAATTTGATAAATCGAGTAAACAAATTTTCCTAATCTTTCTGTTCAAGCGCCATCTAC”, 1.14 RPM ratio (pull-down/input).
The same measure for “GATGATTGTTCTCCCAGCTGATGAATTCAATATATCGAGTAAACAAATTTTCCTAATCTTTCTGTTCAAGCGCCATCTAC”: 1.06 RPM ratio (pull-down/input).
In the case of “GATGATTGTTCTCCCAGCTGATGAATTTGACCCTTCGAGTAAACAAATTTTCCTAATCTTTCTGTTCAAGCGCCATCTAC”, the binding signal is 0.866 RPM ratio (pull-down/input).
The same measure for “GATGATTGTTCTCCCAGCTGATGAATTATTACGATCGAGTAAACAAATTTTCCTAATCTTTCTGTTCAAGCGCCATCTAC”: 1.07 RPM ratio (pull-down/input); for “GATGATTGTTCTCCCAGCTGATGAATTCGCTCGTTCGAGTAAACAAATTTTCCTAATCTTTCTGTTCAAGCGCCATCTAC”: 0.867 RPM ratio (pull-down/input).
For “GATGATTGTTCTCCCAGCTGATGAATTGCGGCTTTCGAGTAAACAAATTTTCCTAATCTTTCTGTTCAAGCGCCATCTAC” the value was 1.03 RPM ratio (pull-down/input); for “GATGATTGTTCTCCCAGCTGATGAATTAATGGGATCGAGTAAACAAATTTTCCTAATCTTTCTGTTCAAGCGCCATCTAC”, 0.907 RPM ratio (pull-down/input).
For “GATGATTGTTCTCCCAGCTGATGAATTCCGCACGTCGAGTAAACAAATTTTCCTAATCTTTCTGTTCAAGCGCCATCTAC” the value was 0.821 RPM ratio (pull-down/input); for “GATGATTGTTCTCCCAGCTGATGAATTCCAGTTGTCGAGTAAACAAATTTTCCTAATCTTTCTGTTCAAGCGCCATCTAC”, 1.19 RPM ratio (pull-down/input); for “GATGATTGTTCTCCCAGCTGATGAATTTAGCAATTCGAGTAAACAAATTTTCCTAATCTTTCTGTTCAAGCGCCATCTAC”, 1.07 RPM ratio (pull-down/input).
For the sequence “GATGATTGTTCTCCCAGCTGATGAATTCCGCCTGTCGAGTAAACAAATTTTCCTAATCTTTCTGTTCAAGCGCCATCTAC”, the binding signal was 0.75 RPM ratio (pull-down/input).
The same measure for “GATGATTGTTCTCCCAGCTGATGAATTGGCAATGTCGAGTAAACAAATTTTCCTAATCTTTCTGTTCAAGCGCCATCTAC”: 0.922 RPM ratio (pull-down/input); for “GATGATTGTTCTCCCAGCTGATGAATTCGGGCGCTCGAGTAAACAAATTTTCCTAATCTTTCTGTTCAAGCGCCATCTAC”: 0.805 RPM ratio (pull-down/input).
For “GATGATTGTTCTCCCAGCTGATGAATTCGCCATCTCGAGTAAACAAATTTTCCTAATCTTTCTGTTCAAGCGCCATCTAC” the value was 0.852 RPM ratio (pull-down/input); for “GATGATTGTTCTCCCAGCTGATGAATTGCATCCATCGAGTAAACAAATTTTCCTAATCTTTCTGTTCAAGCGCCATCTAC”, 1.64 RPM ratio (pull-down/input).
For “GATGATTGTTCTCCCAGCTGATGAATTTTATGTCTCGAGTAAACAAATTTTCCTAATCTTTCTGTTCAAGCGCCATCTAC” the value was 0.899 RPM ratio (pull-down/input).
